# In all, about 280,000 compounds went through this assay and about 1,100 (0.39%) were called active. Inconclusive results, whose numbers are uncertain, are shown with a selection of clear calls. The call rests on the fitted dose curve; in most records, active means well fitted inhibition curve with a large enough effect; inconclusive means small, poorly fitted or top-dose-only effect, or effect the other way; inactive means flat fitted curve, though single readings scatter. Potencies of inconclusive entries are left out as doubtful fits.
# Molecular target: Microtubule-associated protein tau (Homo sapiens) (UniProt P10636)
# Experiment: qHTS for Inhibitors of Tau Fibril Formation, Fluorescence Polarization; further: nearly all actives have a fitted effect of over 55% in size
# Settings: K18 P301L tau heparin fibrillization, Alexa594 FP, 6 h; series mostly up to 57.7 µM
# How it was run: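 K18 P301L tau (15 uM unlabeled/0.24 uM Alexa 594-labeled, final) + compound + heparin 20 uM final; 100 mM NaOAc pH 7; 6 hr 37 C; ThT 30 uM final added, 1 hr RT; FP ex 555/em 632 nm.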
# On the % scale 0 is the no-effect control and ±100 the full control effect; potency means the concentration at half of the fitted maximal effect; tags describe the fitted curve by direction and shape.
# UniProt P10636, sequence (P10636 whole entry, looked up): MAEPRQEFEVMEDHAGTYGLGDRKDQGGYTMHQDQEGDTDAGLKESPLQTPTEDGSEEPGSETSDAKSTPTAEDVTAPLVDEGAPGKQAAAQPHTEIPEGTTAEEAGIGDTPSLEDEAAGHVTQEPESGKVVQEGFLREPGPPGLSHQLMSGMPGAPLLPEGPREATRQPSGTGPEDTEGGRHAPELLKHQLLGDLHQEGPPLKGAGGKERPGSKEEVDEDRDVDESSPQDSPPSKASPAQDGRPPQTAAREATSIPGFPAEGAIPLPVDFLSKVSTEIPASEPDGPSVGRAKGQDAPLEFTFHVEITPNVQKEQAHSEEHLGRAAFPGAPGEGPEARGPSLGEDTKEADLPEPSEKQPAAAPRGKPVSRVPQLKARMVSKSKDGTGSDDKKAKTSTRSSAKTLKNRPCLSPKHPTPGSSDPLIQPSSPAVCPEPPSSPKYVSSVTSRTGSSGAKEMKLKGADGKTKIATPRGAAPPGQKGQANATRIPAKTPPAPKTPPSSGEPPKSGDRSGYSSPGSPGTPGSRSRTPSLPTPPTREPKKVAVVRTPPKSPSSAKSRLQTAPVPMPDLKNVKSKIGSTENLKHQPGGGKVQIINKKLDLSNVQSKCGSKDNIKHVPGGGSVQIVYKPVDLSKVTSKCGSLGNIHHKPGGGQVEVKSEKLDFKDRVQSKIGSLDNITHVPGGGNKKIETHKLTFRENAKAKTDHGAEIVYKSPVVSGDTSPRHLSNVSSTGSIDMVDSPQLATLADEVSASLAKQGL
SMILES,Potency,"activity, negative = inhibition"
CCc1ccc(-n2nc(C)c3c(C)cc(=O)n(CC(=O)Nc4cc(Cl)ccc4OC)c32)cc1,"inconclusive [inhibitor, partial curve, poor fit]",
CCOc1ccc(OCC)c(NC(=O)c2cnn(-c3ccc(F)cc3)c2-n2cccc2)c1,"inconclusive [activator, single point]",
Cc1cccc(OCC(=O)Nc2c(C(=O)Nc3ccc(F)cc3)oc3ccccc23)c1,"inconclusive [inhibitor, partial curve]",
O=C(N1CCOCC1)n1nnc2ccccc21,inactive,
Oc1c(Br)cc(Br)cc1C=NCc1ccc(F)cc1,"inconclusive [inhibitor, partial curve, poor fit]",
COc1cc2c(C(=O)N(C)c3cccc(C(F)(F)F)c3)cn(CC(C)C)c(=O)c2cc1OC,inactive,
Cc1cccc(N2CCn3c2nc2c3c(=O)n(CCCc3ccccc3)c(=O)n2C)c1,inactive,
CC(C)(C)C(=O)Nc1ccc2c(c1)OCCOCCOc1cc(NC(=O)C(C)(C)C)ccc1OCCOCCO2,inactive,
Nc1c(S(=O)(=O)c2cccc(Cl)c2)c2nc3ccccc3nc2n1/N=C/c1ccc(O)c(O)c1,"inconclusive [inhibitor, single point]",
Cc1cccc2cc3c(N)c(C#N)sc3nc12,"inconclusive [activator, partial curve, poor fit]",
Oc1ccc(Br)cc1-c1nc2cnccn2c1NC1CCCCC1,"inconclusive [activator, partial curve, poor fit]",
Cc1cccc(C(=O)Nc2ccc(OCc3cc(=O)n4ccc(C)cc4n3)cc2)c1,inactive,
O=S(=O)(NCc1cccnc1)c1cccc2nsnc12,inactive,
COc1ccc(Nc2nc3ccccc3n3c(N)nnc23)cc1,inactive,
CCC1CN(S(=O)(=O)c2cc(-c3cc(C)no3)ccc2OC)c2cc(Cl)ccc2O1 (stereo not given),"inconclusive [inhibitor, partial curve]",
COc1ccc(-c2nnc3ccc(SCC(=O)Nc4nc5ccccc5s4)nn23)cc1OC,"inconclusive [inhibitor, single point]",
O=S(=O)(NCCc1csc2nc(-c3ccc(Cl)cc3)nn12)c1cccs1,"inconclusive [inhibitor, partial curve]",
CC(C)CC(=O)NC1CC(=O)N(c2ccc3c(c2)OCCO3)C1 (stereo not given),inactive,
COc1ccc(C(=O)Nc2ccc(-c3nnn(CC(=O)N4CCN(C(=O)c5ccco5)CC4)n3)cc2)cc1,"inconclusive [inhibitor, single point]",
O=C(COc1ccc(Cl)cc1)OCc1cc(=O)n2nc(C3CCCCC3)sc2n1,inactive,
Cc1cc(C)cc(NC(=O)[C@H]2O[C@@H]3OC(C)(C)O[C@@H]3[C@H]3OC(C)(C)O[C@H]32)c1,"inconclusive [inhibitor, partial curve, poor fit]",
CC(=O)Nc1ccc(OS(=O)(=O)c2ccc(C(C)(C)C)cc2)cc1,"inconclusive [inhibitor, full curve, poor fit]",

SMILES,Potency,"activity, negative = inhibition"
COc1cc(Nc2nc3c(S(=O)(=O)c4ccccc4)nnn3c3ccc(Cl)cc23)cc(OC)c1,inactive,
O=C(COc1ccccc1)Nc1cccc(-c2nc3cc4ccccc4cc3[nH]2)c1,"inconclusive [inhibitor, partial curve]",
O=C(Nc1ccc(Br)c(C(F)(F)F)c1)c1ccc(C(F)(F)F)cc1,active: 22.4 µM,
CCCCN(CC)C(=O)CSc1nc2c(sc3ccccc32)c(=O)n1CCc1ccccc1,inactive,
CC(C)CCN1CN(S(=O)(=O)c2cccs2)c2nc3ccccc3nc21,inactive,
CCOc1cccc(NC(=O)C2CC(=O)N(C)C(=Nc3ccccc3)S2)c1 (stereo not given),"inconclusive [inhibitor, single point]",
C=COCCNC(=S)Nc1ccccc1,,inactive: -11.1% [at 2.34 µM]
CCCn1c(SCC(=O)N2CC(=O)Nc3ccccc32)nc2ccccc21,inactive,
Cc1ccc(C(=O)NNC(=O)c2cc(OCC(F)(F)F)ccc2OCC(F)(F)F)cc1,inactive,
COC(=O)c1[nH]c2cc(OC)ccc2c1NC(=O)CCN1CCCCC1,inactive,
Cc1ccc(-n2c(SCC(=O)Nc3ccc(N4CCOCC4)cc3)nc3ccccc3c2=O)cc1,"inconclusive [activator, partial curve]",
CCCN1C(C(=O)c2ccccc2)=C(OC(=O)COc2ccc(C)cc2)c2ccccc2S1(=O)=O,"inconclusive [activator, single point]",
COC(=O)CN1C(C(=O)c2ccccc2)=C(OC(=O)c2ccccc2)c2ccccc2S1(=O)=O,"inconclusive [activator, single point]",
CCCCNS(=O)(=O)c1ccc2nc(SCC(=O)c3ccc(C#N)cc3)[nH]c2c1,"inconclusive [inhibitor, single point]",
CCOC(=O)C1=C(N)Oc2cc(O)ccc2C1c1cccc([N+](=O)[O-])c1 (stereo not given),"inconclusive [inhibitor, partial curve]",
COCCn1c(SCC(=O)NNC(=O)c2ccccc2)nc2ccccc2c1=O,inactive,
CCN1CCN(C(=O)Cn2ncc3c4ccccc4n(Cc4c(C)cc(C)cc4C)c3c2=O)CC1,"inconclusive [inhibitor, full curve, poor fit]",
Cn1c(C(=O)N2CCN(c3ncccn3)CC2)cc2c(=O)n(C)c3ccccc3c21,inactive,
COc1cc(NC(=O)COC(=O)/C=C/c2ccccc2Cl)cc(OC)c1,"inconclusive [inhibitor, single point]",
Cc1cc(NC(=O)COC(=O)c2ccc(NS(=O)(=O)c3ccc(C)c(C)c3)cc2)no1,"inconclusive [inhibitor, single point]",
O=C(Nc1ncc(S(=O)(=O)c2ccc([N+](=O)[O-])cc2)s1)c1cccnc1,inactive,
O=C(NC1CCCCC1)c1noc2c1CCCCC2,"inconclusive [activator, single point]",

SMILES,Potency,"activity, negative = inhibition"
O=C(Nc1ccc(OC(F)(F)F)cc1)N1CCN(c2ccnc3cc(Cl)ccc23)CC1,"inconclusive [inhibitor, single point]",
CCOc1ccc(N(CC)C(=O)Cn2cnc3sc(C)c(S(=O)(=O)N4CCN(c5ncccn5)CC4)c3c2=O)cc1,inactive,
Cc1cc(NS(=O)(=O)c2ccc(NC(=O)COc3cc(C)c(Br)cc3C(C)C)cc2)no1,"inconclusive [inhibitor, single point]",
COc1ccc(-c2cc(C(F)(F)F)nc(SCC(=O)NC(C)c3ccccc3)n2)cc1 (stereo not given),"inconclusive [inhibitor, full curve]",
COc1ccc(NC2=C(Cl)C(=O)N(CCc3ccccc3)C2=O)c(OC)c1,"inconclusive [activator, full curve, poor fit]",
Cc1c(NC(=O)c2ccc(-c3ccccc3)cc2)cccc1C(=O)O,inactive,
COc1cc(C(=O)Oc2cccc(Nc3ncnc4ccccc34)c2)cc(OC)c1OC,"inconclusive [inhibitor, single point]",
C#CCOCCOCCOCCNc1nc(N2CCN(C(=O)C(Cc3cc4ccccc4[nH]3)n3cc(C(N)Cc4ccc(O)cc4)nn3)CC2)nc(N2CCN(C(=O)C(Cc3cc4ccccc4[nH]3)n3cc(C(N)Cc4ccc(O)cc4)nn3)CC2)n1 (stereo not given),"inconclusive [inhibitor, single point]",
CS(=O)(=O)N(CC(=O)NC1CC2CCC1C2)c1ccc(Oc2ccccc2)cc1 (stereo not given),"inconclusive [activator, single point]",
CCc1ccc2oc(-c3cc(NC(=O)c4cccs4)ccc3Cl)nc2c1,active: 12.6 µM,
Cc1ccc(OCCNc2ccc(C(F)(F)F)cc2[N+](=O)[O-])cc1,"inconclusive [inhibitor, single point]",
Cc1cc2cc(C(c3nnnn3Cc3ccccc3)N3CCc4ccccc43)c(=O)[nH]c2cc1C (stereo not given),"inconclusive [inhibitor, partial curve]",
CNC(=O)/C(C#N)=C\c1cc(C)n(-c2ccc(N3CCOCC3)cc2)c1C,inactive,
O=c1ccc(Cl)cn1Cc1ccccc1F,"inconclusive [activator, full curve, poor fit]",
COc1cccc(C(=O)Nc2ccc3nc(SCCOc4ccccc4)sc3c2)c1,"inconclusive [inhibitor, partial curve]",
Cc1ccc(NC(=O)COC(=O)c2csc3c2CCC(C)C3)cc1S(=O)(=O)N1CCCCC1 (stereo not given),"inconclusive [inhibitor, partial curve]",
COc1cc(CNc2ccc(NC(C)=O)cc2)ccc1OCc1ccccc1C,"inconclusive [activator, partial curve]",
CCOC(=O)n1c(O)c(N=NC(N)=S)c2cc(C)ccc21,"inconclusive [inhibitor, full curve, poor fit]",
COc1ccc(-c2nnn(Cc3ccccc3F)n2)cc1,"inconclusive [inhibitor, single point]",
CCC(C)N(C(=O)c1csnn1)C(C(=O)NCc1ccc(F)cc1)c1ccco1 (stereo not given),"inconclusive [inhibitor, full curve, poor fit]",
N/C(=N\OC(=O)COc1ccc(Br)cc1Cl)c1ccncc1,"inconclusive [inhibitor, single point]",
